Results published in PubChem BioAssay AID1347073 (National Center for Advancing Translational Sciences (NCATS), 2019).
Screen size: about 45,000 compounds; about 200 (0.44%) were called active. Another 7% or so got no clear call; they are omitted. Calls follow the shape of the dose curve; as a rule, active = well fitted activation curve with a large enough effect; inconclusive = small, poorly fitted or top-dose-only effect; inactive = no such curve, though single readings can be large or run the other way. The list shows a part of the results.

Assay: qHTS of TDP-43 Inhibitors: NCGC Sytravon Library Screen; also: 0% is about no effect; nearly all actives have a fitted effect of over 55% in size
Conditions: yeast TDP-43 toxicity rescue, BacTiter-Glo growth, 24 h; series mostly up to 46.1 µM; growth rescue (activation): at the top concentration
Outline: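 TDP-43-expressing yeast, pregrown in raffinose, seeded at OD600 0.02 in galactose medium with compound for 24 hr at 30 deg C. Growth read by BacTiter-Glo luminescence, so rescue of toxicity appears as activation.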

Row | Compound | growth rescue (activation)
1 | CCCOc1ccc(/C=N/Nc2ccccc2[N+](=O)[O-])c(O)c1 | inactive: -2.23%
2 | O=C(CN(C(=O)CCC(=O)Nc1nccs1)c1cccc(F)c1)NCc1ccc2c(c1)OCO2 | inactive: -12.8%
3 | CC(=O)N1N=C(C)CC1c1ccc(OCc2ccccc2)cc1 (centres undefined) | inactive: -15.2%
4 | Cc1onc(-c2ccccc2)c1C(=O)N1CCN(S(=O)(=O)c2ccc(Cl)cc2)CC1 | inactive: 15.5%
5 | O=C(NCc1ccc(Cl)cc1)c1ccc(COCC(F)(F)F)o1 | inactive: 24.7%
6 | COc1ccccc1CCc1nnc(CCC(=O)NC(C)Cn2nc(C)cc2C)o1 (centres undefined) | inactive: 12.5%
7 | NNc1cc(C(=O)O)ccc1Cl | inactive: 14.8%
8 | CCCCN(CCCC)CCCNC(=O)c1ccc2nc(-c3ccccc3NC(C)=O)c(=O)[nH]c2c1 | inactive: -4.92%
9 | CNC(=O)NC(=O)C(C)OC(=O)c1ccc(Cl)c(S(=O)(=O)Nc2ccc(F)cc2)c1 (centres undefined) | inactive: 14.7%
10 | CC1(C(=O)O)CCN1C(=O)c1cccc(C(F)(F)F)c1 (centres undefined) | inactive: 5.92%
11 | CCc1ccc2nc(Nc3ccc(OC)cc3OC)c(C#N)cc2c1 | inactive: -33.7%
12 | CC(=O)c1cccc(NC(=O)C(C)OC(=O)C2=NNC(=O)CC2)c1 (centres undefined) | inactive: 13.2%
13 | Cc1cc(C)cc(N(CC(=O)NCCSCc2ccco2)S(C)(=O)=O)c1 | inactive: -12.8%
14 | O=C(CCc1nc2ccccc2s1)Nc1cccnc1 | inactive: -0.572%
15 | Cc1ccc(/C=N/Nc2cn[nH]c(=O)n2)o1 | inactive: 13.5%
16 | COc1ccc(NC(=O)c2cc3nc(-c4ccc(Cl)c(Cl)c4)cc(C(F)(F)F)n3n2)c(OC)c1 | inactive: 7.77%
17 | CCC(C)NC(=S)NNC(=O)c1ccncc1 (centres undefined) | inactive: -5.21%
18 | COc1ccccc1N(CC(O)CN1CCC(C)CC1)S(=O)(=O)c1ccccc1 (centres undefined) | inactive: 9.29%
19 | CCOC(=O)c1c(C)[nH]c(C)c1C(=O)COC(=O)C1CC(=O)N(CCc2ccccc2)C1 (centres undefined) | inactive: 0.217%
20 | COc1cc(C(=O)N2CCN(C(=O)COc3ccc4ccccc4c3)CC2)cc(OC)c1OC | inactive: 16.3%
21 | COc1ccc(OC)c(-n2c(-c3ccn[nH]3)n[nH]c2=S)c1 | inactive: 1.3%
22 | O=C(O)[C@@H]1CC(O)CN1C(=O)CCc1c[nH]c2ccccc12 (some centres undefined) | inactive: 0.557%
23 | COC(=O)c1ccc(OCC(O)CNCC(c2ccc(OC)cc2)N(C)C)c(OC)c1 (centres undefined) | inactive: 4.55%

Row | Compound | growth rescue (activation)
24 | CC1=NN(c2nc(-c3ccc(C)cc3)cs2)C(=O)C1N=Nc1ccc2ccccc2c1 (centres undefined) | inactive: -6.25%
25 | O=C(NC1CCN(C(=O)NCc2ccccc2)CC1)c1cccc(F)c1 | inactive: 5.86%
26 | CCn1c(C)nc2cc(C(=O)N/N=C/c3cccc(OC)c3O)ccc21 | inactive: 4.71%
27 | COC(=O)c1cc(OC)c(OC)c(OC)c1[N+](=O)[O-] | inactive: 20.3%
28 | N#Cc1ccc(Cn2c(-c3ccc(F)cc3)noc2=O)cc1 | inactive: 15.1%
29 | COc1ccc(N(CC(=O)NC2CCS(=O)(=O)C2)S(=O)(=O)c2cc(C)ccc2C)cc1 (centres undefined) | inactive: 11.8%
30 | COc1ccc(NC(=O)c2ccco2)cc1S(=O)(=O)N1CCOCC1 | inactive: -0.381%
31 | CC(C)(C)c1[nH]nc2c1C(c1ccncc1)C(C#N)=C(N)O2 (centres undefined) | inactive: 25%
32 | COc1cccc(-c2ccc(NC(=O)C3CCCN(Cc4cnc(C)s4)C3)cc2)c1 (centres undefined) | inactive: 0.987%
33 | O=C(CN1CCCCCC1)Nc1ccc(Cl)cc1F | inactive: -15.4%
34 | CCC1CCCCN1CC(O)COCc1cccc(OC)c1 (centres undefined) | inactive: -1.43%
35 | COc1cc(NC(=O)Nc2nc(C(N)Cc3ccc(C(F)(F)F)cc3)cs2)cc(OC)c1OC (centres undefined) | inactive: 3.74%
36 | O=C(O)CCn1c(=O)c2cccn2c2cccnc21 | inactive: 4.91%
37 | O=C1NC2=C(C(=O)OC2)C(c2ccc(OC(F)(F)F)cc2)N1 (centres undefined) | inactive: 5.95%
38 | O=C(Cn1cnc2ccccc2c1=O)c1ccc(Br)cc1 | inactive: -35.2%
39 | COc1cccc(NC(=O)Nc2ccc3nc(C)c(C)nc3c2)c1 | inactive: 9.01%
40 | N#Cc1ccccc1Cn1c(=O)n(-c2cccc(C(F)(F)F)c2)c(=O)c2sccc21 | inactive: 13.9%
41 | O=C(C1CCCN(CCCc2ccccc2)C1)N1CCCCCC1 (centres undefined) | inactive: -15.5%
42 | O=C(NCc1ccccc1Cl)C1CCCN(C(=O)Nc2ccc(F)cc2)C1 (centres undefined) | inactive: 8.42%
43 | Cc1ccc(CNC(=O)COC(=O)C2CCC2)cc1 | inactive: 5.79%
44 | Cc1sc(NC(=O)C2C3CCC(O3)C2C(=O)O)nc1-c1ccc(CC(C)C)cc1 (centres undefined) | inactive: 35.9%
45 | Cc1cccc(-n2ncc3c(=O)[nH]c(SCC(=O)Nc4cc(C)on4)nc32)c1 | inactive: 11%
46 | O=C1CC(c2ccc(Cl)cc2)CC(O)=C1C=NCCO (centres undefined) | inactive: 13.9%

Row | Compound | growth rescue (activation)
47 | COc1ccc(OCCC(=O)OCC(=O)NC2CCCCC2)cc1 | inactive: 4.91%
48 | Cc1ccc2nc(SCC(=O)NNC(=O)c3ccccc3)[nH]c2c1 | inactive: -0.56%
49 | O=C(NCCCO)c1ccc2nc(-c3ccco3)c(-c3ccco3)nc2c1 | inactive: -1.34%
50 | CC1CCCC(NC(=O)CN2C(=O)NC(C)(c3cc(F)ccc3F)C2=O)C1C (centres undefined) | inactive: 6.71%
51 | Cc1nc(SCC(=O)NC(=O)NCCC(C)C)c2c(-c3cccs3)csc2n1 | inactive: -14.2%
52 | COc1ccc(C(=O)N/N=C(\C)CC(=O)N2CCN(C=O)CC2)cc1 | inactive: -1.18%
53 | Cc1cccc(N(CC(=O)NCc2ccco2)C(=O)CNS(=O)(=O)c2ccc(F)cc2)c1 | inactive: 14.2%
54 | O=C1c2ccccc2C(=O)N1CCCn1ccnc1 | inactive: -4.93%
55 | Cc1cccc(CC(=O)Nc2ccc(C(=O)N3CCOCC3)cc2)c1 | inactive: 9.13%
56 | Cc1ccc(-c2nc(C=Nc3ccc(O)cc3)c(O)o2)cc1 | inactive: -0.461%
57 | CC(C)NC(=O)COC(=O)c1ccccc1CSC1=NCCS1 | inactive: 15.5%
58 | Cc1cc(C)cc(C(O)c2ncc(-c3cccc(C(F)(F)F)c3)[nH]2)c1 (centres undefined) | inactive: 9.47%
59 | C=Cc1ccc(Cn2nc(-c3ccc(C)cc3)ccc2=O)cc1 | inactive: 22.1%
60 | O=c1[nH]c(=S)[nH]cc1S(=O)(=O)c1cccc(Cl)c1 | inactive: -0.986%
61 | O=C(CSCc1ccc(F)cc1)Nc1ccccc1C(=O)N1CCOCC1 | inactive: 18.2%
62 | Cc1nc(NC(=O)c2cc3ccccc3o2)ccc1Br | inactive: -1.35%
63 | CCOC(=O)C1CCN(Cc2oc(CO)cc(=O)c2O)CC1 | inactive: 12.6%
64 | Cc1cc(C)cc(NC(=S)N(Cc2ccc(Cl)cc2)Cc2ccc(C(=O)O)cc2)c1 | inactive: -26.1%
65 | CCNC(=O)NCCNC(=O)c1cc(OCC(F)(F)F)ccc1OCC(F)(F)F | inactive: 1.32%
66 | CCOC(=O)CCCNC(=O)COC(=O)[C@@H]1CCCN1S(=O)(=O)c1ccc(Cl)cc1 | inactive: 1.26%
67 | Cc1ccc(S(=O)(=O)N(C)CC(=O)NCCCn2ccnc2)cc1 | inactive: -17.1%
68 | COc1ccc(NC(=O)COc2ccc(C)cc2)c([N+](=O)[O-])c1 | inactive: 1.09%
69 | Cc1ccc(C(=O)NCCCNC(=O)c2ccc(Cl)cc2)cn1 | inactive: -50.5%
